The source of these data is patent publication US10273244B2, “Substituted hexahydropyrrolo[3,4-b]pyrroles and hexahydrocyclopenta[c]pyrroles as dopamine receptor modulators” (INDIVIOR UK LIMITED, priority 2015, dated 2019).

Molecules are shown by their SMILES.

The target of the first assay is human dopamine type 3 receptor (CHO-hD3 membranes) (Homo sapiens (Human), UniProt P35462).
UniProt P35462, sequence (P35462 whole entry): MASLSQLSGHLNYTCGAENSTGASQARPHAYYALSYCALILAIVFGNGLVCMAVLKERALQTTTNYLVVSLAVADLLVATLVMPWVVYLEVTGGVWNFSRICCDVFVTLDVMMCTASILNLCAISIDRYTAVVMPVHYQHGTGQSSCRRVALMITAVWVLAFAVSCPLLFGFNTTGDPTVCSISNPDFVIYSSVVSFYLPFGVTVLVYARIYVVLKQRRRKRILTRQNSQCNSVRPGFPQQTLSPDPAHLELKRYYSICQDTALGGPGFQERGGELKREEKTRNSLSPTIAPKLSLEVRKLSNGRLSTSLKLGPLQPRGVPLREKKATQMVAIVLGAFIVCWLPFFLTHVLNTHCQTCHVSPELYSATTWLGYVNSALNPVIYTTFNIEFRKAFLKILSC
Conditions: not given
Regarding `Cn1c(SCCCN2C[C@H]3CCN(c4c(F)cccc4F)[C@H]3C2)nnc1-c1ccc(C(N)=O)nc1` [Example 203, 5-[5-({3-[(3aR,6aR or 3aS,6aS)-1-(2,6-difluorophenyl)-octahydropyrrolo[3,4-b]pyrrol-5 yl]propyl}sulfanyl)-4-methyl-4H-1,2,4-triazol-3-yl]pyridine-2-carboxamide], the “D3 pKi” value is 8.88.
Regarding `Cn1c(SCCCN2C[C@@H]3CCN(c4c(F)cccc4F)[C@@H]3C2)nnc1-c1ccc(C(N)=O)nc1` [Example 202, 5-[5-({3-[(3aS,6aS or 3aR,6aR)-1-(2,6-difluorophenyl)-octahydropyrrolo[3,4-b]pyrrol-5-yl]propyl}sulfanyl)-4-methyl-4H-1,2,4-triazol-3-yl]pyridine-2-carboxamide], the “D3 pKi” value was determined as 8.42.

Staying with this assay, now noted: displacement of 0.3 nM [3H]-Spiperone.
Take `Cn1c(SCCCN2C[C@H]3CCN(c4ccc(C(F)(F)F)cc4)[C@H]3C2)nnc1-c1ccc(=O)n(C)c1` [Example 194, 5-[5-({3-[(3aR,6aR or 3aS,6aS)-1-[4-(trifluoromethyl)phenyl]-octahydropyrrolo[3,4-b]pyrrol-5-yl]propyl}sulfanyl)-4-methyl-4H-1,2,4-triazol-3-yl]-1-methyl-1,2-dihydropyridin-2-one]: the “D3 pKi” value is on record as 8.28.
Still for that read-out and setting: in the case of `Cn1c(SCCCN2CC3CCN(c4ccc(C(F)(F)F)cc4)C3C2)nnc1-c1ccccn1` (stereo not shown) [Example 160, 2-{4-methyl-5-[(3-{1-[4-(trifluoromethyl)phenyl]-octahydropyrrolo[3,4-b]pyrrol-5-yl}propyl)sulfanyl]-4H-1,2,4-triazol-3-yl}pyridine] it was 8.75; in that of `Cn1c(SCCCN2CC3CCN(c4ccc(C(F)(F)F)cc4)C3C2)nnc1C(=O)N1CCCC1` (stereo not shown) [Example 191, 4-methyl-3-(pyrrolidine-1-carbonyl)-5-[(3-{1-[4-(trifluoromethyl)phenyl]-octahydropyrrolo[3,4-b]pyrrol-5-yl}propyl)sulfanyl]-4H-1,2,4-triazole], 7.56.
On the same count and under the same terms, to `Cl.Cl.Cl.Cn1c(SCCCN2C[C@@H]3CCN(c4ccc(C(F)(F)F)cc4)[C@@H]3C2)nnc1-c1cccnc1` [Example 144, 3-[5-({3-[(3aS,6aS or 3aR,6aR)-1-[4-(trifluoromethyl)phenyl]-octahydropyrrolo[3,4-b]pyrrol-5-yl]propyl}sulfanyl)-4-methyl-4H-1,2,4-triazol-3-yl]pyridine trihydrochloride] belongs 8.15.
The same measure, in the same setting: to `Cn1c(SCCCN2CC3CCN(c4ccc(F)cc4C(F)(F)F)C3C2)nnc1-c1cnccn1` (stereo not shown) [Example 130, 2-{5-[(3-{1-[4-fluoro-2-(trifluoromethyl)phenyl]-octahydropyrrolo[3,4-b]pyrrol-5-yl}propyl)sulfanyl]-4-methyl-4H-1,2,4-triazol-3-yl}pyrazine] belongs 7.62; to `Cn1c(SCCCN2CC3CCN(c4ccccc4C(F)(F)F)C3C2)nnc1-c1cc[nH]c(=O)c1` (stereo not shown) [Example 174, 4-{4-methyl-5-[(3-{1-[2-(trifluoromethyl)phenyl]-octahydropyrrolo[3,4-b]pyrrol-5-yl}propyl)sulfanyl]-4H-1,2,4-triazol-3-yl}-1,2-dihydropyridin-2-one], 7.87; to `Cn1c(SCCCN2CC3CCN(c4ccccc4C(F)(F)F)C3C2)nnc1-c1ccc(=O)[nH]c1` (stereo not shown) [Example 179, 5-{4-methyl-5-[(3-{1-[2-(trifluoromethyl)phenyl]-octahydropyrrolo[3,4-b]pyrrol-5-yl}propyl)sulfanyl]-4H-1,2,4-triazol-3-yl}-1,2-dihydropyridin-2-one], 8.10.
Take `Cn1c(SCCCN2CC3CCN(c4ccccc4C(F)(F)F)C3C2)nnc1-c1ccccn1` (stereo not shown) [Example 161, 2-{4-methyl-5-[(3-{1-[2-(trifluoromethyl)phenyl]-octahydropyrrolo[3,4-b]pyrrol-5-yl}propyl)sulfanyl]-4H-1,2,4-triazol-3-yl}pyridine]: the “D3 pKi” value was 8.29.
